Source: the supplement of paper PMC3334620
Whole data set: some 33,000 sequences, median “E-score (-0.5 to 0.5)” near -0.035, cut for the highest 2% near 0.35. This is one part of the list.

Molecular target: T1, Pdr3 (UniProt P33200)
T1 sequence: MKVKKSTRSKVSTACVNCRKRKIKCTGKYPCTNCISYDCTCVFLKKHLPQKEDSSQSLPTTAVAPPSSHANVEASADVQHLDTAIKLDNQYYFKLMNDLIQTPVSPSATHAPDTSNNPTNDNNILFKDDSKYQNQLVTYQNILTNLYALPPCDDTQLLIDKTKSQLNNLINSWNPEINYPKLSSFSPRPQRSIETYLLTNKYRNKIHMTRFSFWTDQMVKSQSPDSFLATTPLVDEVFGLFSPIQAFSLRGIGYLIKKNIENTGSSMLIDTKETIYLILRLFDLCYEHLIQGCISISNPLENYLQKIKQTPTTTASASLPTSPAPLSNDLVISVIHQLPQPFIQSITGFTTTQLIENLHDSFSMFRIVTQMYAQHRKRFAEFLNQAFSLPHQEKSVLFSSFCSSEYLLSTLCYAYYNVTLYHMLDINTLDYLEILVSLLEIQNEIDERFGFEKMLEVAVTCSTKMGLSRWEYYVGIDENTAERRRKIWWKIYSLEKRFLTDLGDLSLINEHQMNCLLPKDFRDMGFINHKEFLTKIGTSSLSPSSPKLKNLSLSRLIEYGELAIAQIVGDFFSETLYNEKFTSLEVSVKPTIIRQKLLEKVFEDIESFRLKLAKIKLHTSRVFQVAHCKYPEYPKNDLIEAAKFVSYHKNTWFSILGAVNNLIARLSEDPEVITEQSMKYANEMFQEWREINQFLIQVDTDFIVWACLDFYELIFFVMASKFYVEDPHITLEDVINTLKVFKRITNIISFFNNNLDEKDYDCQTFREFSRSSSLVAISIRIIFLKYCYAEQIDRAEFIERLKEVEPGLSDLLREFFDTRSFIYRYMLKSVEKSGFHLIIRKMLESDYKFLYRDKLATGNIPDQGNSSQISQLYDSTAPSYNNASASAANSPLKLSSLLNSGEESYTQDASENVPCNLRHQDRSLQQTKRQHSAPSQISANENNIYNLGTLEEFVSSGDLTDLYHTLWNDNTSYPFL
Assay: PBM E-score (8-mer binding enrichment) (E-score (-0.5 to 0.5)); higher = stronger / more preferred TF binding; most listed sequences are background and not binding sites
Details: protein concentration: 200 nM; construct: GST-full length
Protocol: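 Universal 'all 10-mer' protein binding microarrays (Agilent AMADID 015681) probed with GST-tagged S. cerevisiae TFs (full-length or DBD) made by in vitro transcription/translation (PURExpress), about 100-200 nM. Bound TF was detected with fluorescent anti-GST. Each ungapped 8-mer (which stands for itself and its reverse complement) is scored by the PBM enrichment score (E-score), a modified Wilcoxon-Mann-Whitney statistic from -0.5 to +0.5, computed with the Universal PBM Analysis Suite. Scale: above 0.35 generally sequence-specific binding.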

Sequence	PBM E-score
CTTTAGCA	-0.131
GCCTTAAA	-0.0926
ACATGTGG	-0.033
AAGTTGGA	-0.0399
GAGGGGAC	-0.0578
CGATTAAC	-0.0197
CATTACCG	0.0437
ACAGACCG	0.0876
ACACATCA	-0.0747
CCCGTCTA	0.135
AGGATTCG	0.063
AGCTTCGA	-0.102
CATGAGTA	-0.168
TCTGGACA	-0.0193
ACTGTCTC	0.0155
ACTTAAGT	-0.177
ATTGTGCG	0.043
ACAGAGCG	-0.219
GCCCATGA	0.0274
GCACGCCC	0.175
GAGTTTGC	0.0634
CTAAGCTC	-0.174

Sequence	PBM E-score
ATGGTGCG	-0.107
ACGGCCCT	-0.185
CACTTAAG	0.00117
AATGGCAG	-0.0843
ACATAACA	0.0167
AGGTGACA	-0.137
ATATTTGA	0.0182
ATGCCTTA	-0.316
AGTCACCA	-0.212
AATCATGT	-0.0895
GGTCCTCA	0.0438
GGAGTTAC	0.13
GACGATTA	0.0221
CCGACCCG	0.275
GAAGACGC	0.0621
CACCCCGG	0.236
AATCACAC	-0.0658
AGGTTACT	0.00384
CAATATCA	-0.0753
GTCAGAAC	-0.132
CAGCGGAA	0.429
CTCAACAG	-0.268

Sequence	PBM E-score
CTATCTTA	-0.0715
GCTAAATA	-0.18
CCGGGTGC	0.335
CAAATGTA	0.0363
CCTGCTAC	0.0463
ACAGAACA	0.0488
ACTCCGCA	0.154
ATCACAGC	-0.00136
AATGGGCC	0.179
CCCTGATC	0.0107
CTGTCATA	-0.255
ACCGGTCG	-0.052
CCCATCAC	-0.0661
CGAGAAGC	-0.0427
GCGGAGTA	0.245
ACCCGGGA	0.448
CACAATCG	0.0735
GAAACAGC	0.0605
CCGCTAAC	0.13
TAGGCGCA	0.0506
CCATGGCA	-0.0618
ATATAGGA	0.0313

Sequence	PBM E-score
GGTCGCAA	0.0838
GCGGGGGA	0.13
ATCACTTG	-0.189
CCATCACC	0.00462
ATGTGATC	-0.0525
CGTATAAA	0.16
GCCTATCA	-0.0216
ACTGTAGA	-0.11
CGGGGTAC	0.0885
CAGGTCGC	-0.0612
TCAAATAA	0.0815
ATTTCTCA	-0.226
ATGGGTTC	-0.109
AGGGTATA	-0.0377
GACCCAAC	-0.136
CCAAGGCA	-0.0524
ACCGTGTC	0.161
ACACTTCC	0.184
AATGTCGC	0.0447
GGGTCGAC	0.0291
